Reference: PubChem BioAssay AID504332 (National Center for Advancing Translational Sciences (NCATS), 2011)
Values joined by “and” are separate entries in the source; they are usually repeats but may differ in a detail not shown here. Equal values may be shown once. The whole screen tested about 350,000 compounds, of which about 31,000 (8.9%) were called active. The shares of active, inactive and inconclusive entries below differ from those in the screen. The call rests on the fitted dose curve; in most records, active means well fitted inhibition curve with a large enough effect; inconclusive means small, poorly fitted or top-dose-only effect; inactive means no such curve, though single readings can be large or run the other way. Where the call is inconclusive, the potency comes from a doubtful curve fit. Some compounds were tested as several samples or in several runs, with calls that do not always agree.

Target: Histone-lysine N-methyltransferase EHMT2 (Homo sapiens) (UniProt Q96KQ7)
UniProt Q96KQ7, sequence (Q96KQ7 whole entry, looked up): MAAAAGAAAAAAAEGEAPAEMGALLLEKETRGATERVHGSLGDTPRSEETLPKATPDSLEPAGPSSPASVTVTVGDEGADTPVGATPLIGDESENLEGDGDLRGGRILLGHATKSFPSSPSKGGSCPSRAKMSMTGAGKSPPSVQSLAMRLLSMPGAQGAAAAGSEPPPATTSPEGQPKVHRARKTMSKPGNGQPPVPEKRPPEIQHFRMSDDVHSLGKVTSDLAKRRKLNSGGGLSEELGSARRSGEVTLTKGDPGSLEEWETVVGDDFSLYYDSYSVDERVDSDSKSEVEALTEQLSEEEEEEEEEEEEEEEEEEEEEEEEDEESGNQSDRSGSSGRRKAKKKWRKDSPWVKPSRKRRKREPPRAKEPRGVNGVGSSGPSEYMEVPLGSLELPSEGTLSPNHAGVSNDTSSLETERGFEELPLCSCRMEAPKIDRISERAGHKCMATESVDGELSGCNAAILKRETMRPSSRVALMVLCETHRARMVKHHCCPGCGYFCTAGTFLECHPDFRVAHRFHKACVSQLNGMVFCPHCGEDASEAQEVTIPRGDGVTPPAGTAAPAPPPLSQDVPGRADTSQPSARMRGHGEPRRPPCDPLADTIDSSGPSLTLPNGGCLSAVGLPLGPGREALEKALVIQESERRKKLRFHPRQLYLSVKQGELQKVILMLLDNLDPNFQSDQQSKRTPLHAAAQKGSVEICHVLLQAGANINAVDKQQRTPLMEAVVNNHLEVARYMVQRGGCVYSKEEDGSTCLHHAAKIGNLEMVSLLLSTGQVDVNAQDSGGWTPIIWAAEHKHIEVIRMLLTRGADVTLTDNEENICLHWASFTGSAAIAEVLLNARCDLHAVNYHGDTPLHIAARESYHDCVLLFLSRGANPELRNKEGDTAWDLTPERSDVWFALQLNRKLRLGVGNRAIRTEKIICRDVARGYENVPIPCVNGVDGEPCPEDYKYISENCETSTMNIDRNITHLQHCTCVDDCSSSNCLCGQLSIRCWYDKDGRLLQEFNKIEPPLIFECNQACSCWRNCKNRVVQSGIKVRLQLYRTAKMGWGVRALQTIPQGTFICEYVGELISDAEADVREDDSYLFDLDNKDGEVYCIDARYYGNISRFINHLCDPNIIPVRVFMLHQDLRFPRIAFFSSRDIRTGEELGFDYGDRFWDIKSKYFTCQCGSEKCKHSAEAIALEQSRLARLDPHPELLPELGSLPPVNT
Assay: qHTS Assay for Inhibitors of Histone Lysine Methyltransferase G9a; further: nearly all actives have a fitted effect of over 75% in size
Settings: G9a H3K9 monomethylation, AlphaScreen, 2 h; activity, negative = inhibition: at 59 µM (top of the series) unless noted
Outline: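 Chemiluminescent proximity detection of H3K9 monomethylation, read after 10 min bead incubation in the dark. Reaction: 20 nM G9a, 500 nM biotin-H3K9 peptide, 20 uM SAM cofactor, 2 h, room temperature, following 15 min enzyme-compound preincubation.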
On the % scale 0 is the no-effect control and ±100 the full control effect; potency means the concentration at half of the fitted maximal effect; tags describe the fitted curve by direction and shape.

Structure (SMILES)	Potency	activity, negative = inhibition
O=[N+]([O-])c1ccc2nc(N3CCNCC3)ccc2c1	inconclusive: 44.7 µM [inhibitor, partial curve] and inconclusive: 37.7 µM [inhibitor, single point]	–
CCn1c(P(C)(=O)O)nc2ccccc21	–	inactive: 4.18%
CN1Cc2ccccc2[C@@H]2c3cccc4[nH]cc(c34)C[C@H]21	active: 12.6 µM	–
CCOC(=O)/C(CCCN(CC)CC)=N\O	inconclusive: 50.1 µM [inhibitor, partial curve, poor fit]	–
O=C1NC(=O)N(CCC2=CCCCC2)C(=O)/C1=C/c1ccc(O)cc1	inconclusive: 1.78 µM [inhibitor, full curve, poor fit]	–
O=C(NC(C(Cl)Cl)N1CCOCC1)c1ccccc1 (stereo not drawn)	inconclusive: 89.1 µM [inhibitor, partial curve, poor fit]	–
CN(C)CCCNCC(=O)Nc1ccc(Cl)cc1C(=O)c1ccccc1	inconclusive: 50.1 µM [inhibitor, partial curve, poor fit]	–
CCOC(=O)N(c1ccccc1)P1(=S)OCC(C)O1 (stereo not drawn)	–	inactive: 16.7%
COC1=CC2C3Cc4ccc(OC)c(O)c4[C@]2(CCN3C)CC1=O (stereo partly drawn)	–	inactive: -39.1% [at 2.33 µM]
Cc1cc(C=C2C(=O)NC(=O)NC2=O)c(C)n1-c1ccncc1	inconclusive: 39.8 µM [inhibitor, partial curve, poor fit]	–
NC(=O)c1ccc(C(=O)Nc2ccc([As](=O)(O)O)cc2)cc1	inconclusive: 17.8 µM [inhibitor, single point]	–
CN(CCc1ccccc1)Cc1ccccc1[N+](=O)[O-]	inconclusive: 79.4 µM [inhibitor, single point]	–
CCN1CCN(c2ccc([N+](=O)[O-])cc2C=C2C(=O)NC(=O)NC2=O)CC1	inconclusive: 39.8 µM [inhibitor, single point]	–
c1ccc2c(N3CCNCC3)cccc2c1	active: 16.8 µM	–
O=C(CSc1ccc(-c2ccco2)nn1)Nc1ccccc1	active: 20 µM	–
Nc1ccc2nonc2c1[N+](=O)[O-]	inconclusive: 70.8 µM [inhibitor, partial curve, poor fit]	–
COc1ccc(CC2C(=O)N(C)C(=O)N(C)C2=O)c(OC)c1	–	inconclusive: -88.7% [inhibitor]
CCCN(CCC)CCc1c[nH]c2ccc(C(N)=O)cc12	inconclusive: 3.16 µM [inhibitor, partial curve] and inconclusive: 3.36 µM [inhibitor, full curve]	–
Cc1cccc(N2C(=O)/C(=C/N3CCN(C(=O)c4ccco4)CC3)C(=O)NC2=S)c1	inconclusive: 79.4 µM [inhibitor, single point]	–
CN(C)C(Cc1ccccc1)C(=O)c1ccc(-c2ccccc2)cc1 (stereo not drawn)	inconclusive: 15.8 µM [inhibitor, partial curve, poor fit]	–
O=C(CCN1CCN(CCO)CC1)N1c2ccccc2Sc2ccc(C(F)(F)F)cc21	inconclusive: 3.16 µM [inhibitor, partial curve, poor fit]	–
Cc1cc(O)c2c(c1)OC(C)(C)C1=C2CC(C)CC1 (stereo not drawn)	inconclusive: 70.8 µM [inhibitor, single point]	–
CCOC(=O)c1cn2nc(OP(=S)(OCC)OCC)cc2nc1C	active: 20 µM	–

Structure (SMILES)	Potency	activity, negative = inhibition
COc1cc(CN2CCSCC2)cc(OC)c1OC	inconclusive: 2.24 µM [inhibitor, partial curve, poor fit]	–
O=C1NC(c2cccnc2)Nc2sc3c(c21)CCCC3 (stereo not drawn)	inconclusive: 39.8 µM [inhibitor, single point]	–
CCCCCCn1c(O)c(C=Nc2c(C)n(C)n(-c3ccccc3)c2=O)c(=O)[nH]c1=O	–	inactive: -22.1% [at 12.7 µM]
O=C(N/N=C/c1c(O)n(CCC2=CCCCC2)c(=O)[nH]c1=O)c1ccccc1	inconclusive: 17.8 µM [inhibitor, single point]	–
O=c1cc(O)c2ccccc2[nH]1	inconclusive: 79.4 µM [inhibitor, partial curve, poor fit]	–
CCOC(=O)c1c(C)n(Cc2ccccc2)c2ccc(OCC(O)CN3C(=O)CNC3=O)cc12 (stereo not drawn)	–	inactive: 11.3%
COc1ccc2c(c1)c(CCN1CCOCC1)c(C)n2C(=O)c1cccc(Cl)c1Cl	inconclusive: 21.2 µM [inhibitor, partial curve, poor fit]	–
C1=CC(Cc2cncs2)c2ccccc21 (stereo not drawn)	–	inactive: -10.8% [at 0.501 µM]
COc1ccc(CN2C(=O)NC(=O)/C(=C\c3ccco3)C2=O)cc1	active: 28.2 µM	–
Cc1ccccc1N1C(=O)CC(=O)NC1=O	active: 44.7 µM	–
CN(C)CC1Oc2ccccc2OC1(O)c1ccccc1 (stereo not drawn)	inconclusive: 28.2 µM [inhibitor, single point]	–
CN(C(=O)CN1CC=C(c2ccccc2)CC1)c1c(N)n(Cc2ccccc2)c(=O)[nH]c1=O	inconclusive: 44.7 µM [inhibitor, partial curve, poor fit]	–
CC/C(=N\NC(N)=O)c1c(O)[nH]c(=O)[nH]c1=O	inconclusive: 50.1 µM [inhibitor, partial curve, poor fit]	–
Cc1cccc(C(=O)Nc2ccc3c(c2)CC2(C(=O)N(C)C(=O)N(C)C2=O)C2CCCN32)c1 (stereo not drawn)	active: 28.2 µM	–
CCN(CC)CCO[C@H]1CC[C@@]2(C)C(=CC[C@@H]3[C@H]2CC[C@]2(C)C(=O)CC[C@H]32)C1	–	inactive: -1.53% [at 12.7 µM]
c1ccc(C2NCc3ccccc3-n3cccc32)cc1 (stereo not drawn)	inconclusive: 14.1 µM [inhibitor, partial curve, poor fit]	–
COc1ccc(CN2CCN(c3ncnc4sc5c(c34)CCCC5)CC2)cc1F	inconclusive: 20 µM [inhibitor, single point]	–
CCOc1ccc(OCC)c(NC(=O)CN2CCN(c3ccc(C)cc3C)CC2)c1	active: 10 µM	–
O=C(COc1ccccc1)N1CCN(CC2CC3C=CC2C3)CC1 (stereo not drawn)	active: 8.91 µM	–
COc1ccc2c(c1)CC1(CN2C)C(=O)NC(=O)N(CCc2ccccc2)C1=O (stereo not drawn)	active: 11.2 µM	–
O=c1[nH]c(CN2CC=C(c3ccccc3)CC2)nc2cc(C(F)(F)F)ccc12	inconclusive: 89.1 µM [inhibitor, single point]	–
CN1C(=O)C(=Cc2sc(=O)n(-c3ccccc3)c2N(C)C)C(=O)N(C)C1=O	inconclusive: 89.1 µM [inhibitor, single point]	–
COC(=O)c1ccc2[se]c(CC3CCCCC3)c(I)c2c1	–	inactive: -2.16%

Structure (SMILES)	Potency	activity, negative = inhibition
O=[N+]([O-])/C=C/c1ccc2c(c1)OCO2	active: 2.12 µM	–
COc1cc2c(cc1OC)-c1c(OC)c(OC)c(OC)c3ccnc(c13)C2=O	inconclusive: 70.8 µM [inhibitor, single point]	–
C=CCn1c(O)c(C(CC)=Nc2ccc(C(=O)O)cc2)c(=O)[nH]c1=O	inconclusive: 79.4 µM [inhibitor, single point]	–
Nc1ccc2c(c1)Cc1ccccc1-2	inconclusive: 17.8 µM [inhibitor, partial curve, poor fit]	–
Cc1[nH]c2ccccc2c1CCCNC1CCCCC1	inconclusive: 4.47 µM [inhibitor, partial curve, poor fit]	–
O=C1NC(=O)C(CCc2ccncc2)(Cc2cccc(Cl)c2Cl)C(=O)N1c1ccc(Br)cc1 (stereo not drawn)	inconclusive: 7.94 µM [inhibitor, partial curve, poor fit]	–
CN1CCN(c2cccc3c2C(=O)c2ccccc2C3=O)CC1	inconclusive: 31.6 µM [inhibitor, single point]	–
Cc1cccc(N2CCc3c2nc2ccccc2c3N)c1	inconclusive: 39.8 µM [inhibitor, single point] and inconclusive: 25.1 µM [inhibitor, single point]	–
Cn1c(O)c(C=NCCCCCCCCCCC(=O)O)c(=O)n(C)c1=O	–	inactive: -49.7% [at 102 µM]
CC(C)=CCOc1c2occc2cc2ccc(=O)oc12	inactive	–
Cc1[nH]c2ccccc2c1CCNCc1ccco1	inconclusive: 70.8 µM [inhibitor, single point]	–
Cn1c(=O)c(Oc2ccc(F)cc2)c(O)c2ccccc21	inconclusive: 89.1 µM [inhibitor, single point]	–
CCCCc1nc2ccccc2c(=O)n1-c1ccc(O)cc1	inconclusive: 14.1 µM [inhibitor, partial curve, poor fit]	–
CCOc1cccc(N2C(=O)/C(=C/c3ccco3)C(=O)NC2=S)c1	active: 14.1 µM	–
O=C1NC(=O)C(=Cc2csc3ccccc23)C(=O)N1	active: 8.91 µM	–
Cc1ccccc1N1CCN(S(=O)(=O)c2nnc(NC(=O)c3ccc(Cl)cc3)s2)CC1	inconclusive: 1.58 µM [inhibitor, full curve]	–
COc1ccccc1OCC#CCN1CCOCC1	active: 3.98 µM	–
CCCCn1c(NC(=O)c2ccco2)c(C(=O)OCC)c2nc3ccccc3nc21	inconclusive: 31.6 µM [inhibitor, single point]	–
CN1CCC(N2CC3CC(C2)c2cccc(=O)n2C3)CC1 (stereo not drawn)	inconclusive: 89.1 µM [inhibitor, single point]	–
CN1C(=O)NC(=O)/C(=C\C=C\c2ccccc2[N+](=O)[O-])C1=O	active: 7.94 µM	–
COc1ccc(OC)c2c1CCC1NCCOC21 (stereo not drawn)	inconclusive: 6.31 µM [inhibitor, partial curve]	–
COc1ccc(CNC(=O)Cn2c(=O)oc3cc(S(=O)(=O)N4CCCC4)ccc32)cc1	–	inactive: -18.7%
